# From patent publication US20040142862A1, “Methods and compositions for modulating agonist-induced downregulation of G protein-coupled receptors” (The Regents of the University of California, priority 2002, published 2004)
# Molecular target: T1, alpha-2B adrenergic receptor (Homo sapiens, UniProt P18089)
# T1 construct: GST; made in house
# Assay: GST affinity chromatography, binding to alpha-2B adrenergic receptor tail
# Settings: in vitro, GST fusion, not shown
# Experimental: The ability of GASP1 to modulate the endocytic sorting of other (non-opioid) GPCRs was examined next. […] The lack of GASP1 interaction with the V2 receptor tail is consistent with the remarkable ability of these receptors to remain in endocytic vesicles for a prolonged period of time after endocytosis without undergoing any detectable downregulation (34).
# 24. Affinity chromatography was carried out as previously described (25).
# T1 sequence (P18089 429-450 limits assumed, species assumed): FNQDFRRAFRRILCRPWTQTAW
molecule,measurement,value
"cGASP1: carboxyl-terminal fragment of the GASP1 protein, corresponding to the C-terminal 497 residues of GASP1 (protein) SETEEETIFGSWFWDGKEVSEEAGPCCVSKPEDDEEMIVESWFWSRDKAIKETGTVATCESKPENEEGAIVGSWFEAEDEVDNRTDNGSNCGSRTLADEDEAIVGSWFWAGDEAHFESNPSPVFRAICRSTCSVEQEPDPSRRPQSWEEVTVQFKPGPWGRVGFPSISPFRFPKEAASLFCEMFGGKPRNMVLSPEGEDQESLLQPDQPSPEFPFQYDPSYRSVQEIREHLRAKESTEPESSSCNCIQCELKIGSEEFEELLLLMEKIRDPFIHEISKIAMGMRSASQFTRDFIRDSGVVSLIETLLNYPSSRVRTSFLENMIRMAPPYPNLNIIQTYICKVCEETLAYSVDSPEQLSGIRMIRHLTTTTDYHTLVANYMSGFLSLLATGNAKTRFHVLKMLLNLSENLFMTKELLSAEAVSEFIGLFNREETNDNIQIVLAIFENIGNNIKKETVFSDDDFNIEPLISAFHKVEKFAKELQGKTDNQNDPEGDQEN",binding to the alpha-2B adrenergic receptor tail,interacted
